Results: paper PMC4336329 (PLoS ONE, 2015)
Screen size: about 310,000 compounds; about 2,200 (0.71%) showed an effect of 50% or more. The effect is printed as a negative number. The list shows a part of the results.

What follows are molecules tested against human ether-à-go-go-related gene (hERG) potassium channel (human, UniProt Q12809) (assay: primary screen, population patch clamp on CHO cells stably expressing hERG).
human ether-à-go-go-related gene (hERG) potassium channel, sequence (Q12809 whole entry, looked up): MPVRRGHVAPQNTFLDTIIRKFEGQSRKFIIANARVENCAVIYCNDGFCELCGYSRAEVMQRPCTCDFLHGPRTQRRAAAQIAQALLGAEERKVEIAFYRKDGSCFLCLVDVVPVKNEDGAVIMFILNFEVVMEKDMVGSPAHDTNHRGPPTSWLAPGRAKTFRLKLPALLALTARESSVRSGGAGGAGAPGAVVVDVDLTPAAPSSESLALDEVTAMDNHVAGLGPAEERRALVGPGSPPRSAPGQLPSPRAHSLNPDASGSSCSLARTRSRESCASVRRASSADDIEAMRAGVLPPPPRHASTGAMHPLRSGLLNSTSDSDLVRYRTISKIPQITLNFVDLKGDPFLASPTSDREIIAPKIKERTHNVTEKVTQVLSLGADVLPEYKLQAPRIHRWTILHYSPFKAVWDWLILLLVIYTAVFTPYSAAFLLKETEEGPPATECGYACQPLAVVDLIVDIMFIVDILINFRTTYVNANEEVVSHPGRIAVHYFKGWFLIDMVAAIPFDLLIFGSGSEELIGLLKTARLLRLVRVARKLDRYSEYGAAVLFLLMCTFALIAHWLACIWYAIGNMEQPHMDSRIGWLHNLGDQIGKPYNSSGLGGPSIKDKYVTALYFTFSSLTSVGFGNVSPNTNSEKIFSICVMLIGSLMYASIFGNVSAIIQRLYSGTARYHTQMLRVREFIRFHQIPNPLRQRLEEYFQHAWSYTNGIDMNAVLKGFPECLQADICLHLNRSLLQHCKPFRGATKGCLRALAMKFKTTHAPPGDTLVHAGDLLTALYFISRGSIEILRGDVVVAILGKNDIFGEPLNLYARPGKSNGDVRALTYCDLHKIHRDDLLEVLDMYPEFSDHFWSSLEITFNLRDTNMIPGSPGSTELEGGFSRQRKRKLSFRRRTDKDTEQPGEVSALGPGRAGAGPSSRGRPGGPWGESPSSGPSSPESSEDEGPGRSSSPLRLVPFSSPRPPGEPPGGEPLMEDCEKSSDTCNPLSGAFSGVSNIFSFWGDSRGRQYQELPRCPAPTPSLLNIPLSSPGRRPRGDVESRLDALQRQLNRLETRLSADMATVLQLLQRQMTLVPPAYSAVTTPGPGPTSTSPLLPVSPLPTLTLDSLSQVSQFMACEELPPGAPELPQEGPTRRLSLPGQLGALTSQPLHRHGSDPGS

Row | SMILES | hERG current change (%, negative = inhibition) at 1uM
1 | Cc1c(C(=O)N2CCOCC2)c(S(=O)(=O)Nc2ccccc2)c(C)n1C | 10.3%
2 | O=C1CCCC(=O)C1=Cc1c[nH]c2ccccc12 | 9.37%
3 | COc1ccc(/C=N/NC(=S)Nc2ccccc2)cc1COc1ccc(Br)cc1 | 6.21%
4 | O=C(c1ccc(S(=O)(=O)Nc2ccccc2Cl)cc1)N1CCOCC1 | 7.94%
5 | Cc1cc(NC(=O)COc2cccc(C)c2C)no1 | 7.71%
6 | Cc1ccc2c(c1)sc[n+]2Cc1ccccc1.[Br-] | 12.8%
7 | COc1ccc(C(=O)N(C(C)C)C(C)C)c(OC)c1 | 13.5%
8 | COc1ccc(NC(=O)CN(C)S(=O)(=O)c2ccc3c(c2)CC(C)N3C(C)=O)cc1OC (centres unmarked) | 12.4%
9 | CC(C)(C)C1C=C(Sc2ccccc2)C(=O)O1 (centres unmarked) | 3.53%
10 | CCN(CCCNC(=O)C1CCC(=O)N1Cc1ccc(F)cc1)c1cccc(C)c1 (centres unmarked) | 5.54%
11 | CCOc1ccccc1OCCN1CCC(Cc2ccccc2)CC1.O=C(O)C(=O)O | -53.7%
12 | CN(Cc1nc(-c2ccncc2)no1)S(=O)(=O)c1ccc(Cl)cc1 | -17.6%
13 | Cc1cccc(C(=O)Nc2cccc(C(=O)N/N=C/c3ccc4c(c3)OCO4)c2)c1 | 4.34%
14 | NC(=O)C1CCN(c2ccc(C(F)(F)F)cc2[N+](=O)[O-])CC1 | -5.02%
15 | O=C(Nc1cccc(C(F)(F)F)c1)C(SCCO)c1ccccc1 (centres unmarked) | 0.0794%
16 | CN(C)C(=O)NC(NC(=S)Nc1ccccc1)C(Cl)(Cl)Cl (centres unmarked) | 11.9%
17 | CCOC(=O)N1CCN(C(=O)C2CCN(C(=O)c3cc(OC)cc(OC)c3)CC2)CC1 | 5.7%
18 | O=C(Nc1ccc(Cl)cc1F)C1CC1 | 9.74%
19 | CC(=O)NC1(C2CCCCC2=O)CCCCC1 (centres unmarked) | 14.1%
20 | CS(=O)(=O)N(Cc1ccc(C(=O)NC2CCCCC2O)cc1)c1ccccc1 (centres unmarked) | -3.16%
21 | Cc1c(C=O)c2ccccc2n1CCOc1ccccc1 | 14.1%
22 | CCN(CCCNC(=O)C1c2ccccc2C(=O)N(CCOC)C1c1ccc(F)cc1)Cc1ccccc1 (centres unmarked) | -9.37%
23 | Cc1cc(Br)ccc1OCC(=O)NC1CCCC1 | 11.4%

Row | SMILES | hERG current change (%, negative = inhibition) at 1uM
24 | O=C(CSc1nnnn1-c1ccc(O)cc1)Nc1ccc(N2CCOCC2)c(Cl)c1 | 1.14%
25 | C[C@H](NC(=O)CCn1nnc2ccccc2c1=O)C(=O)O | 8.19%
26 | Cc1cc2nc3n(c2cc1C)CC1CC(C(=O)NCc2ccco2)N(C)C31 (centres unmarked) | -1.1%
27 | Cn1c(=O)c2c(ncn2CC(=O)OCC(=O)c2ccc(F)c(F)c2)n(C)c1=O | -3.49%
28 | CCN(CC)S(=O)(=O)c1ccc(C(=O)Nc2ccc3c(c2)OCCO3)cc1 | -1.02%
29 | O=C(NCC1CCCO1)C(c1cccs1)N(C(=O)c1ccc(CN2CCOCC2)o1)c1ccc(Cl)cc1 (centres unmarked) | 13.7%
30 | CC(Sc1ncn[nH]1)C(=O)c1c(N)n(C)c(=O)n(C)c1=O (centres unmarked) | 15.5%
31 | O=C(Cc1ccc(F)cc1)N1CCN=C1SCc1ccc([N+](=O)[O-])cc1 | 8.17%
32 | COc1ccc(Cl)cc1NC(=O)CCS(=O)(=O)c1ccc(C)cc1 | 13.6%
33 | CCN(CC)CCCN1C(=O)C(O)=C(C(=O)c2ccc(C)o2)C1c1ccc(C)o1 (centres unmarked) | 17.4%
34 | CCCn1c(=O)c(C(=O)Nc2cccc(C)n2)c(O)c2ccccc21 | 15.7%
35 | COc1ccc2c(CC(=O)OCC(=O)Nc3ccc(S(N)(=O)=O)cc3)coc2c1 | 11.3%
36 | CCOc1ccc(OCCCC(=O)NCCc2ccc(OC)cc2)cc1 | 21.8%
37 | CS(=O)(=O)NCCSc1nnnn1-c1ccccc1 | 14.3%
38 | CCOC(=O)c1nn(-c2ccc(F)cc2)c(=O)cc1OCC(=O)Nc1ccc(F)c(F)c1 | 16.9%
39 | Cc1ccc(C)c(NC(=O)CSc2nnc(C)c(=O)n2N)c1 | 11.4%
40 | CN1CCN(C(=O)c2cccc(S(=O)(=O)N3CCCC3)c2)CC1.Cl | 24.1%
41 | Cc1ccc(-c2nn(CC(=O)NCc3ccccn3)c(=O)c3ccccc23)cc1S(=O)(=O)N(C)C | -11.5%
42 | O=C(COC(=O)/C=C/c1cccc(F)c1)Nc1ccccc1 | 5.97%
43 | Nc1ccc(NC(=O)c2ccc(C(=O)Nc3ccc(N)cc3)cc2)cc1 | 9.92%
44 | CC(CCc1ccco1)NC(=O)Cn1ncc2c1-c1ccccc1OC2 (centres unmarked) | 5.18%
45 | CN(Cc1cccs1)c1nc(-c2cccnc2)nc2ccccc12 | -4.54%
46 | COc1ccc(S(=O)(=O)N(C)Cc2cccs2)cc1Br | 10.4%

Row | SMILES | hERG current change (%, negative = inhibition) at 1uM
47 | CC(=O)N1N=C(c2ccncc2)OC12CCCC2 | 14.4%
48 | Cc1nc(N2CCN(C(=O)c3ccco3)CC2)c2c3c(sc2n1)CC(C)CC3 (centres unmarked) | 10.1%
49 | C#Cc1ccc(C(=O)Nc2cc(C(N)=O)ccc2N2CCOCC2)cc1 | -9.42%
50 | CCn1cc(C(=O)OCC(=O)Nc2cccc(S(=O)(=O)N3CCOCC3)c2)c(=O)c2ccc(C)nc21 | 19.1%
51 | CCN(Cc1nc2ccccc2c(=O)[nH]1)Cc1nc2ccsc2c(=O)[nH]1 | 8.31%
52 | CCCCC(=O)NNC(=S)NC(=O)c1ccc(C)cc1 | 18.1%
53 | CN(C(=O)c1cnc(N2CCN(c3ncccn3)CC2)c2ccccc12)c1ccc(Cl)cc1 | 11.7%
54 | CCN(CCCCCCN)c1ccc2c(=O)[nH][nH]c(=O)c2c1 | 9.15%
55 | O=C(NCSc1ccncn1)c1ccccc1 | 13.1%
56 | COc1ccc(-n2nc([N+](=O)[O-])c(=NCCc3ccc(Cl)cc3)n2O)cc1 | 11.1%
57 | C#CCOc1ccccc1C(N)=O | 14%
58 | O=C(NC1CCCCCC1)c1ccccc1-c1ccccc1 | -3.35%
59 | COCc1cc(=O)[nH]c2cc(NC(=O)c3cccc(OC)c3)c(C)cc12 | 15.7%
60 | CCCCC(=O)Nc1ccc(NC(=O)C2CC2)cn1 | 13.6%
61 | CN(CC(=O)NCCN1CCN(Cc2ccccc2)CC1)S(=O)(=O)c1cccc2nsnc12 | 2.04%
62 | CCOC(=O)C(C)(C)Sc1nc2c(cnn2-c2ccc(C)cc2)c(=O)[nH]1 | 5%
63 | O=C(NC(O)C(=O)c1ccc(F)cc1)c1ccc(F)cc1 (centres unmarked) | 9.08%
64 | COc1cccc(CNC(=O)C2CCN(C(=O)N(C)C)CC2)c1 | 10.9%
65 | CCO/N=C(/C)c1c(O)c(C)c(-c2ccccc2)n(-c2ccccc2)c1=O | 12.9%
66 | COc1ccc(N2CCN(C(=S)Nc3ccc(C)cc3)CC2)cc1 | 10.4%
67 | Cc1ccc(/C=C/C(=O)NC2CCCCCCC2)o1 | 3.27%
68 | CCOc1cc(/C=N/O)cc(Br)c1OCC(=O)NCc1ccccc1 | 13%
69 | Cc1oc(-c2ccc(Cl)cc2)cc1-c1nn2c(-c3ccoc3C)nnc2s1 | 2.41%

Row | SMILES | hERG current change (%, negative = inhibition) at 1uM
70 | CCOC(=O)C(C)Sc1nnc(NC(=O)c2ccc3c(c2)OCO3)s1 (centres unmarked) | 7.77%
71 | CCOC(=O)C1=C(C)N(CCCC(=O)O)C(=O)NC1c1cc2ccccc2c2ccccc12 (centres unmarked) | 5.67%
72 | CC(C)NC(=O)c1ccc2c3n(nc2c1)-c1ccc(Cl)cc1CO3 | 19.3%
73 | COc1ccc(S(=O)(=O)n2oc(=O)cc2-c2ccccc2)cc1OC | 2.75%
74 | Cc1ccc(/C(O)=C2/C(=O)C(=O)N(c3ccccn3)C2c2ccc([N+](=O)[O-])cc2)cc1 (centres unmarked) | 5.28%
75 | Br.CCCCCCn1ccc(=N)cc1 | 7.68%
76 | COc1ccc(Nc2nc(-c3cccnc3)cs2)c(OC)c1 | 7.06%
77 | Cc1noc(C)c1S(=O)(=O)NCc1ccc(CN(C)C)cc1.Cl | 11%
78 | O=C(Nc1ccc2c(c1)OCCO2)c1cc(-n2cnnc2)ccc1Cl | 3.58%
79 | COc1ccc(C(=O)NCCc2nnc(SCC(=O)Nc3ccccc3)n2C)cc1 | 8.61%
80 | Cn1c(=O)n(C)c2cc(S(=O)(=O)Nc3ccccc3O)ccc21 | -5.52%
81 | CC1Sc2ccc(S(=O)(=O)N3CCC(C(N)=O)CC3)cc2NC1=O (centres unmarked) | 20.7%
82 | Cc1cc(C(=O)Nc2nc3ccc(S(C)(=O)=O)cc3s2)c(C)o1 | 2.88%
83 | Cc1ccccc1C(=O)Nc1ccccc1N1CCCCC1 | 17.4%
84 | CCCN1C(=O)/C(=C/c2ccc(C)o2)SC1=Nc1ccc(OCC)cc1 | 6.08%
85 | COCCOC(=O)c1c(C)oc2ccc(OC(=O)COc3c(F)c(F)c(F)c(F)c3F)cc12 | 4.77%
86 | C=C(C)C(=O)Nc1cccc(C2=NOC3(C2)C[C@@H](C(N)=O)N(C(=O)C(=C)C)C3)c1 (some centres unmarked) | 11.1%
87 | OCCC1CN(Cc2ccc(F)cc2Cl)CCN1CCc1ccccc1 (centres unmarked) | -34.2%
88 | CCc1cccc2c(C(=O)CN3C(=O)NC4(CCc5ccccc54)C3=O)c[nH]c12 (centres unmarked) | 15%
89 | COc1ccc(OC)c(N(CC(=O)NC2CCCC2)S(=O)(=O)c2ccc(OC)c(OC)c2)c1 | -8.06%
